Source: PubChem BioAssay AID1030 (National Center for Advancing Translational Sciences (NCATS), 2008)
In all, about 220,000 compounds went through this assay and about 16,000 (7.3%) were called active. The shares of active, inactive and inconclusive entries below differ from those in the screen. Calls come from the whole dose curve; as a rule, active = well fitted inhibition curve with a large enough effect (not every such curve was filed as active); inconclusive = small, poorly fitted or top-dose-only effect, or another doubt; inactive = no such curve, though single readings can be large or run the other way. Where the call is inconclusive, the potency comes from a doubtful curve fit.

Molecular target: Aldehyde dehydrogenase 1A1 (Homo sapiens) (UniProt P00352)
Test: qHTS Assay for Inhibitors of Aldehyde Dehydrogenase 1 (ALDH1A1);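 for activity, negative = inhibition: plate controls were no enzyme wells and a reference inhibitor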
Conditions: Purified ALDH1A1, NADH fluorescence, propionaldehyde substrate; series mostly up to 75.3 µM; activity, negative = inhibition: at the top concentration
Potency is the fitted concentration of half-maximal effect; tags give direction and shape of the fitted curve.

UniProt P00352, sequence (P00352 whole entry, looked up): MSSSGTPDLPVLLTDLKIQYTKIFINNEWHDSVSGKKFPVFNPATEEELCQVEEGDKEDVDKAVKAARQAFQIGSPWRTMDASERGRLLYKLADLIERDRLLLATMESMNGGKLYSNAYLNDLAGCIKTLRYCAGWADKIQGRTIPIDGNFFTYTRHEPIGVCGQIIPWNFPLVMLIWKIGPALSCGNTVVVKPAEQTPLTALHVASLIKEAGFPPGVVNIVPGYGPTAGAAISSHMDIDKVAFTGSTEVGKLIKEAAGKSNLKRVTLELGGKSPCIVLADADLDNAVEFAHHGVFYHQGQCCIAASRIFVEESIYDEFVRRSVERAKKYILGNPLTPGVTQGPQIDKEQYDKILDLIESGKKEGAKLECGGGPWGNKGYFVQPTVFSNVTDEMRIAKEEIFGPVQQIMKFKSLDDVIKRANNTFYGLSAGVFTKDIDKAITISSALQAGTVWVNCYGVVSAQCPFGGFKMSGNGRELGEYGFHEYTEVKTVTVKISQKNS

Potency, inconclusive:
O=C(CSc1n[nH]c(=O)[nH]c1=O)c1cccc([N+](=O)[O-])c1 39.8 µM [inhibitor, single point]
CCn1cc(C(=O)NCc2ccco2)c(=O)c2cc(F)c(N3CCN(C(=O)c4ccco4)CC3)cc21 31.6 µM [inhibitor, partial curve]
O=C(CN1CCN(c2ccccn2)CC1)Nc1cc(C(F)(F)F)ccc1Cl 39.8 µM [inhibitor, single point]
Oc1ccc(-c2cn3cc(C(F)(F)F)ccc3n2)cc1 39.8 µM [inhibitor, single point]
Cc1cc(C)cc(NC(=O)C(OC(=O)c2cccs2)c2ccccc2)c1 (stereo not given) 31.6 µM [inhibitor, single point]
COc1ccccc1/C=N/n1cnnc1 39.8 µM [inhibitor, partial curve]
N#Cc1c(C(F)(F)F)cc(C2CC2)nc1N1CCCC1 28.2 µM [inhibitor, partial curve]
COc1cc2cc(C(c3nnnn3C(C)(C)C)N3CCc4ccccc4C3)c(=O)[nH]c2cc1OC (stereo not given) 25.1 µM [inhibitor, partial curve]
O=S(=O)(c1ccc(N2CCN(S(=O)(=O)c3ccc4c(c3)OCCO4)CC2)nc1)N1CCCC1 39.8 µM [inhibitor, single point]
Cc1ccccc1Nc1cc2ccccc2c(=O)[nH]1 8.91 µM [inhibitor, full curve]
CN(C)Cc1c(O)c(Cl)cc2c3c(c(=O)oc12)CCCC3 28.2 µM [inhibitor, partial curve]
O=C(NCCN1CCOCC1)c1cn(-c2ccccc2)nc1-c1cccs1 35.5 µM [inhibitor, single point]
CCC(C)c1ccc(OCCCCN2CCOCC2)cc1 (stereo not given) 22.4 µM [inhibitor, single point]
Cc1nnc2c3cnn(-c4ccc(Cl)cc4)c3ncn12 35.5 µM [inhibitor, single point]
Cc1ccc(-c2[nH]c(-c3ccc(Cl)cc3)nc2SCC(=O)NCC2CCCO2)cc1 (stereo not given) 25.1 µM [inhibitor, partial curve]
CNCCOc1ccc(Cl)c(Cl)c1 39.8 µM [inhibitor, single point]
CCOC(=O)N1CCN(Cc2c(F)cccc2F)CC1 35.5 µM [inhibitor, single point]
O=C(NN=C(Cc1ccccc1)Cc1ccccc1)c1ccccc1F 14.1 µM [inhibitor, single point]
CCCc1[nH]nc2c1C(c1ccc(O)c(OC)c1)C(C#N)=C(N)O2 (stereo not given) 28.2 µM [inhibitor, single point]
COc1nnnc2c1sc1nc(N3CCOCC3)c3c(c12)CC(C)(C)OC3 3.98 µM [inhibitor, partial curve]
Cc1ccc(N/C=C/C(=O)c2ccc(C)cc2)cc1 31.6 µM [inhibitor, single point]
COc1ccc(NS(=O)(=O)c2ccc3nc(COc4ccc(C#N)cc4)[nH]c3c2)cc1 39.8 µM [inhibitor, single point]
COc1ccc2c(c1)c1ncn(CCCN3CCOCC3)c(=O)c1n2C 28.2 µM [inhibitor, partial curve]
COc1ccc(S(=O)(=O)O/N=C2\CCCc3ccccc32)cc1 25.1 µM [inhibitor, single point]
CC(C)C1=CC2=CC[C@@H]3[C@](C)(CO)CCC[C@]3(C)C2CC1 (stereo not given in full) 22.4 µM [inhibitor, single point]
O=C(O)CSCc1cnn(-c2ccccc2)c1-n1cccc1 39.8 µM [inhibitor, single point]
N#Cc1ccccc1-c1ccc2ncnc(NCc3ccccc3)c2c1 25.1 µM [inhibitor, partial curve]
Cc1ccc2nc3c(c(C(=O)OCC(=O)NC4CCS(=O)(=O)C4)c2c1)CCCC3 (stereo not given) 17.8 µM [inhibitor, partial curve]
COc1ccc2[nH]c(C)c(CCN3C(=O)OC(C)(C)C3(C)O)c2c1 (stereo not given) 39.8 µM [inhibitor, single point]

Potency, active:
N#Cc1c(N)[nH]c(=S)c(C#N)c1-c1ccccc1 28.2 µM
Cc1cc(C2=NNC(=NC3CC3)SC2)c(C)n1-c1c(C)n(C)n(-c2ccccc2)c1=O 25.1 µM
CCCOc1ccc(N2C(=O)CC(N3CCOCC3)C2=O)cc1 (stereo not given) 25.1 µM
Cn1c(C(=O)N2CCCC(C(=O)NCc3ccc4c(c3)OCO4)C2)cc2sccc21 (stereo not given) 3.55 µM
COc1ccc(C(=O)NCC(=O)Nc2cccc(S(=O)(=O)NCc3ccco3)c2)cc1OC 20 µM
Cc1ccc(CNC(=O)C2c3ccccc3C(=O)N3CCc4ccccc4C23)o1 (stereo not given) 25.1 µM
COc1ccc(C(=O)CSc2nnnn2Cc2ccccc2)cc1 12.6 µM

activity, negative = inhibition, inactive:
CNC(=S)N(Cc1ccc(OC)cc1)Cc1cc2ccc(C)cc2[nH]c1=O -8.42%
O=C(c1ccc(-c2nnc(Nc3cccc(Cl)c3)c3ccccc23)cc1)N1C[C@H]2C[C@H](C1)c1cccc(=O)n1C2 -1.03%
Cc1ccc(NC(=O)CCn2cccc2)cc1C 7.48%
CN(C)CCN1C(=O)CC[C@]2(C)C1=CC[C@@H]1[C@@H]2CC[C@]2(C)[C@H]1CC[C@]2(C)O 5.04% [at 13.5 µM]
Cc1ccc(OCC(=O)c2c[nH]c3ccccc23)c([N+](=O)[O-])n1 -8.2%
COc1ccc(C(=O)Cn2ccsc2=NC(C)=O)cc1 6.67%
O=C1/C(=C\c2ccc(O)cc2)SC(=S)N1c1cccnc1 0.381%
COC(=O)C(Cc1c[nH]c2ccccc12)NC(C)=O (stereo not given) 10.7%
COc1ccc(C(=O)CCC(=O)Nc2cccnc2)cc1 -5.79%
